Results as given in paper PMC4336329 (PLoS ONE, 2015).
Hit rate of the full screen: of about 310,000 compounds, about 14,000 (4.5%) showed an effect of 50% or more. The effect is printed as a negative number. The list shows a part of the results.

What follows are compounds tested against human ether-à-go-go-related gene (hERG) potassium channel (human, UniProt Q12809) (assay: primary screen, population patch clamp on CHO cells stably expressing hERG).
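Also: peak tail current of the secondary pulse compared with the same well before compound.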

human ether-à-go-go-related gene (hERG) potassium channel, sequence (Q12809 whole entry, looked up): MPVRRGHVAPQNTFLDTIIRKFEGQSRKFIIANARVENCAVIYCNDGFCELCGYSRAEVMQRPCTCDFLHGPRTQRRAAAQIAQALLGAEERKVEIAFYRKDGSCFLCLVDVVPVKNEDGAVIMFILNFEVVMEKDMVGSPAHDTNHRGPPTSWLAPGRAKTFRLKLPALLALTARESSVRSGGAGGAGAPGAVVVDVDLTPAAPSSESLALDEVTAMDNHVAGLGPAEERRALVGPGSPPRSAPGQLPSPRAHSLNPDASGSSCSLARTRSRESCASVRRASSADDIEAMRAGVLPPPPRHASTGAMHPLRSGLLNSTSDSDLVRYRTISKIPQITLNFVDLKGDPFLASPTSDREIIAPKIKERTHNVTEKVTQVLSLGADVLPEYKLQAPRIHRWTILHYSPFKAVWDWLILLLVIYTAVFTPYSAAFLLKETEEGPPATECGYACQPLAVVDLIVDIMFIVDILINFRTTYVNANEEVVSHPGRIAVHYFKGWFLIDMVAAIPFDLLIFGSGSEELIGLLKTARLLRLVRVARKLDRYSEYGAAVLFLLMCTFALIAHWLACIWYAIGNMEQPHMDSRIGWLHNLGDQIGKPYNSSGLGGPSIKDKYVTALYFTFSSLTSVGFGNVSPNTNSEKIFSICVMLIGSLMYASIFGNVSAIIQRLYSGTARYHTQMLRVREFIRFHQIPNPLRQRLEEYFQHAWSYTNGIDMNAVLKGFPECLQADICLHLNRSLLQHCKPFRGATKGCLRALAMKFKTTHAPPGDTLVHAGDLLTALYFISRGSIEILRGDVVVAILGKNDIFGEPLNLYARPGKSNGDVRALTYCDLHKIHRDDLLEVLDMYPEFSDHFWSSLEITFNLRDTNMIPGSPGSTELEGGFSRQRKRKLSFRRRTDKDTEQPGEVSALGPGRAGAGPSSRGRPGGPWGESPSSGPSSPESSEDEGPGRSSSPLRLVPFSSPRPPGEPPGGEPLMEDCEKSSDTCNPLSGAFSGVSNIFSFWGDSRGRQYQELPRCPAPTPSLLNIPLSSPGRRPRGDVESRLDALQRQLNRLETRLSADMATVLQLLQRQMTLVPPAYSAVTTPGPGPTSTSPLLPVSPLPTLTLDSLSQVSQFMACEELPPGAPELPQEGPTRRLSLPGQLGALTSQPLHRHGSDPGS

`N#C/C(=C\c1cccnc1)c1nc2ccccc2[nH]1` was tested. Which “hERG current change (%, negative = inhibition) at 10uM” value did it give?
Its value is -10.4%.

How did the “hERG current change (%, negative = inhibition) at 10uM” value turn out when `Cc1ccccc1NC(=O)NCC1CCN(Cc2cccc(Cl)c2)CC1` was run?
Its value is -60%.

With `O=C1N/C(=N\N=C\c2ccco2)SC1Cc1ccccc1[N+](=O)[O-]` (stereo not drawn) as the compound, how does the “hERG current change (%, negative = inhibition) at 10uM” value read?
The value was 5.12%.

How did the “hERG current change (%, negative = inhibition) at 10uM” value turn out when `COc1ccc(/C=C/c2nnc(NC(=O)CSc3ccc(Cl)cc3)s2)cc1` was run?
Its value is -0.317%.

Which “hERG current change (%, negative = inhibition) at 10uM” value does the source give for `Cc1cc(C)nc(N(C#N)Cc2ccc(Br)cc2)n1` here?
The value was 4.33%.

With `Cc1ccc(CN2CCN(C/C(Cl)=C/c3ccccc3)CC2CCO)o1` (stereo not drawn) as the compound, how does the “hERG current change (%, negative = inhibition) at 10uM” value read?
The value was -45.2%.

Which “hERG current change (%, negative = inhibition) at 10uM” value does the source give for `NNC(=S)NCc1ccco1` here?
The value was -1.18%.

`CC(C)[C@H](NC(=O)[C@H](Cc1ccccc1)n1c(=O)[nH]c2ccccc2c1=O)C(=O)N1CCC[C@@H]1C(=O)O` was tested. Which “hERG current change (%, negative = inhibition) at 10uM” value did it give?
The value was 12.2%.

`Cc1ccc(/C=C2\SC(=S)N(CCC(=O)NNC(=O)c3ccccc3O)C2=O)cc1` was tested. Which “hERG current change (%, negative = inhibition) at 10uM” value did it give?
The value was 5.74%.

`CCOc1ccc(S(=O)(=O)N2CCCCC2)cc1NC(=O)Cc1cccs1` was tested. Which “hERG current change (%, negative = inhibition) at 10uM” value did it give?
Its value is -7.2%.

How did the “hERG current change (%, negative = inhibition) at 10uM” value turn out when `CCN(CC)c1ccc(NC(=O)CN2C(=O)NC3(CCc4ccccc43)C2=O)cc1` (stereo not drawn) was run?
The value was 8.12%.

Which “hERG current change (%, negative = inhibition) at 10uM” value does the source give for `Cc1ccc(C(C(=O)NC(C)(C)C)N(CC2CCCO2)C(=O)c2csnn2)cc1` (stereo not drawn) here?
The value was 0.995%.

With `N#Cc1ccc(N2Cc3ccccc3/C2=N/C(=O)Nc2ccc(Cl)cc2)cc1` as the compound, how does the “hERG current change (%, negative = inhibition) at 10uM” value read?
The value was -15.4%.

For `c1ccc(OCCCn2ccnc2)cc1`, which “hERG current change (%, negative = inhibition) at 10uM” value is on record?
Its value is 16.3%.

How did the “hERG current change (%, negative = inhibition) at 10uM” value turn out when `CCCN1CCN(S(=O)(=O)c2ccc3c(c2)NC(=O)C(C)C(=O)N3)CC1` (stereo not drawn) was run?
The value was 1.15%.

With `Cc1ccc(C(=O)Nc2ccc3c(c2)C(=O)N(C)C3=O)c(C)c1` as the compound, how does the “hERG current change (%, negative = inhibition) at 10uM” value read?
Its value is 3.54%.

For `CCCCOc1ccc(N(CC(=O)NC(C)C)C(=O)CCC(=O)Nc2ccccn2)cc1`, which “hERG current change (%, negative = inhibition) at 10uM” value is on record?
The value was 20.1%.

Which “hERG current change (%, negative = inhibition) at 10uM” value does the source give for `O=C(NC(=S)Nc1ccccc1N1CCCC1)c1ccccc1[N+](=O)[O-]` here?
Its value is 12%.

With `CC(NS(=O)(=O)/C=C/c1ccccc1)C(=O)O` (stereo not drawn) as the compound, how does the “hERG current change (%, negative = inhibition) at 10uM” value read?
Its value is 9.33%.

`COc1ccc(C(=O)N2CC=C(c3ccccc3)CC2)cc1S(=O)(=O)N1CCOCC1` was tested. Which “hERG current change (%, negative = inhibition) at 10uM” value did it give?
The value was -21.4%.

`Cc1ccccc1NC(=O)c1ccc(S(=O)(=O)C(F)F)cc1` was tested. Which “hERG current change (%, negative = inhibition) at 10uM” value did it give?
Its value is -27.6%.

How did the “hERG current change (%, negative = inhibition) at 10uM” value turn out when `COc1ccc(CC(=O)N2CCc3cc(OC)c(OC)cc3C2)cc1` was run?
The value was -6.59%.

How did the “hERG current change (%, negative = inhibition) at 10uM” value turn out when `N#CC(c1ccc(Cl)cc1)c1ccc(Cl)nn1` (stereo not drawn) was run?
Its value is -0.526%.

How did the “hERG current change (%, negative = inhibition) at 10uM” value turn out when `COc1c(C)cc(Br)cc1C(=O)Nc1ccc(C)cc1[N+](=O)[O-]` was run?
Its value is 15.9%.
